In the RNAGym collection of RNA variant scans (doi:10.7554/elife.90254):
Read counts are not given, so values of variants with three or more changes are uncertain.

B1: LINE1-full (parent)
chain: UACGUAGGUGGUUUUCCCCUGAUAGUGCUAAGGGGGCCUGGAAGUUUGGACUGGGCAGAGCUCAACACAGCGUGGCAAAGUGGCUGUGGCUAGACUGCCUCUCUGGAUUCCUCGUCACUCAGCAGGGCAUCUCUGAGAGAAAUGCC

Variants of: B1
Assay: self-cleavage, relative activity (ratio to wild type); higher = more cleavage; in vitro, sequencing; the parent is a self-cleaving ribozyme

Row | Variant | self-cleavage
1 | U9A U12C A43G A64U | 0.51
2 | U9A U12C G53A U130C | 0.39
3 | A6G U87A A140U | 0.16
4 | G8A U20A G49A A50G A140U A142U | 1.31
5 | G7A U46C U62C U115C | 0
6 | A6U U39A A59G A77G C103U A129G | 0
7 | G7U G48U C61U U81C A142G | 0.03
8 | U9A G36A A94G | 0.05
9 | G8A A43G U119A | 1.66
10 | A6U U13C U81A | 1.17
11 | G7U A42G U100C U130C | 2.4
12 | U9A U14A U47C | 2.45
13 | U9A U13A A22G A138G | 0
14 | G8U U46A U119C | 1.71
15 | U9A U39C G40U A77G A94G | 0
16 | U9A U14A U26C A121G A136G | 0
17 | A6G U39C A142G | 0
18 | G8A U81C A94G | 1.06
19 | A6U U26A G33A | 0.72
20 | U9A U20C A77G | 0.97
21 | G8A A43G U96C | 0

Row | Variant | self-cleavage
22 | U9A U47C A64U A92G G135A | 0.34
23 | A6G U15C A78G U87A U130C A136G | 2.09
24 | A6G U46C G48A | 1.1
25 | U9A U15C A136U | 1.58
26 | A6U U87A A107G A117U | 0.12
27 | A6G U13C A50C G55A A57U A59G A92U | 0.47
28 | U9A U14C U119C | 0.89
29 | G7A G49U A69G G86A U104A | 0.01
30 | U9A G10A C37U C90U | 0.02
31 | A6U U26C U39C A50U U119A A121U | 0.31
32 | A6U U13A A42G | 1.53
33 | A6G U39C A124G | 1.15
34 | A6G U81C U102C U109A | 0.84
35 | A6U U15C U20C U134A | 1.08
36 | U9A U15A U39G G54U | 0.99
37 | A6G U45A U46C U52C U81C | 0.84
38 | U9A U45C U96C A140G | 0.24
39 | U9A U12C A57C A94G | 0
40 | G7A U85C A142G C146A | 0.35
41 | G8U U46C A69U | 0.02
42 | G8U U62A U108C | 0.03

Row | Variant | self-cleavage
43 | U9A A42U A57G U100G | 0.48
44 | G7C U12C U45G | 0.96
45 | U9A U13C A140U | 0.58
46 | U9A U20G A43G C120U | 0.96
47 | U9A U13C U96C U130A | 0.14
48 | U9A U26C U104A A142U | 1.01
49 | G7U A57G C61U U130C A136C | 0
50 | A6G U104C U130C | 0
51 | U9A U26C U143A | 0.81
52 | G8C U9C G35U A65U U104C | 0.77
53 | A6G U13A A42G A57G | 1.1
54 | A6G U45G U47A U104A A141G | 0
55 | U9A U39A G137A | 1.09
56 | U9A A43U U47A A65C U104C A141G | 0.02
57 | G7A A67G A79G A138U A142U U143A | 0.18
58 | U9A A67C C123A | 0.05
59 | U9A U26A A42G | 0.63
60 | U9A A30U U115A A138G A140G | 1.46
61 | U9A U12A U46C A67G A94U | 0.48
62 | G7C A22G A42U U46C U119C | 1.02
63 | A6U C90U U104C | 0.05

Row | Variant | self-cleavage
64 | A6U U9C U13C A64G A117U | 0.8
65 | G7C A69U A77G A141G | 0.35
66 | U9A G58U U85C U96A | 0.07
67 | U9A U13C A64C G127A U143A | 0.38
68 | A6G U46C U132C | 0
69 | G8A U12C A141G | 1.12
70 | A6G U26C A79G | 1.64
71 | U9A C37U U81C U115C | 1.7
72 | U9A A65U U91A U96A U132C | 0.1
73 | U9A U39C G40A A57C | 0
74 | G7A U15C U20C A59G G93A | 0.05
75 | A6G U14C U134C A140G | 0.92
76 | U9A U20G U52C | 0.28
77 | G7U A64G U87C | 0
78 | A6U A64U A77G | 0.22
79 | U9A G74A U109A A138U | 1.8
80 | G7C U15C A77G G93A U115C | 0
81 | A6G U15C A69G U143C | 0.61
82 | G8C C71U U102A U104C | 1.24
83 | U9A U46C U112C | 1.48
84 | A6U U13G U62A | 0.18
